# Laboratory results published in PubChem BioAssay AID760 (NMMLSC, 2007).
# Among all 190,000 compounds or so, about 360 (0.19%) were called active. This list was built around the results that the source calls inconclusive (neither active nor inactive); the mix of calls is not that of the screen.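 Rule for the calls: active = GTP binding activity at least 20 points away from 100%, either lowered or raised; inconclusive = signal likely due to the compound's own green fluorescence; inactive = the rest.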
# Target: Ras-related protein Rab-2A (Canis lupus familiaris) (UniProt P61105)
# Assay: modulators of GTP binding to Rab2A wildtype, primary screen, biochemical, dog, bead-based flow cytometry, multiplex (AID 760);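 note: 0% = beads with excess unlabeled GTP and 100% = no-compound control corrected for plate trend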
# Details: GST-Rab2 wt beads, Bodipy-GTP binding, at 10 µM
row,Structure (SMILES),GTP binding activity
1,COc1cc(C(=S)N2CCOCC2)cc(OC)c1OC(=O)Cc1ccccc1,inconclusive: 98%
2,Cc1ccc(NP(=O)(Oc2ccccc2F)Oc2ccccc2F)cc1,inconclusive: 106%
3,CC(=NCc1ccc(F)cc1)c1c(O)n(C)c(=O)n(C)c1=O,inconclusive: 103%
4,Cc1nn(Cc2ccccc2)c(C)c1C(=O)OCC(=O)Nc1cccc(S(N)(=O)=O)c1,inconclusive: 100%
5,COc1ccc(-c2cc(=NCCCCCC(=O)O)c3cc(C)ccc3o2)cc1,active: 70%
6,COc1ccc(OC)c(/C=N/OC(=O)Nc2ccc(Cl)cc2)c1,inactive: 99%
7,CN1CC=C(c2c[nH]c3ccccc23)CC1,inconclusive: 102%
8,CCCCCCN1CCN(c2ccc(Cl)cc2)CC1,inconclusive: 95%
9,Cc1ccc(-n2c(O)c(C=NC3CCCC3)c(=O)[nH]c2=O)c(C)c1,inconclusive: 103%
10,COc1cc2c(C(=O)O)c(C)n(C)c2cc1Br,inconclusive: 93%
11,O=P(Nc1cccnc1)(Oc1ccccc1Cl)Oc1ccccc1Cl,inconclusive: 98%
12,CCOC(=O)c1c(C)n(C(C)C)c2ccc(OC(=O)c3ccc(N4C(=O)CCC4=O)cc3)cc12,inactive: 97%
13,COc1ccc(C(=O)CC2(CC(=O)c3ccc(OC)cc3)C(=O)N(C)C(=O)N(C)C2=O)cc1,inactive: 99%
14,Cc1ccccc1NC1(C#N)CCCCC1,inconclusive: 92%
15,Cc1cccnc1-n1c(-c2ccccc2)nc2ccccc2c1=O,inconclusive: 107%
16,O=C(CNS(=O)(=O)c1ccc(Br)s1)N1CCC2(CC1)OCCO2,inconclusive: 104%
17,CCc1nc2ccccc2c(=O)n1-c1ccccc1[N+](=O)[O-],inconclusive: 104%
18,COc1cc2c(cc1O)CC1c3c(cc(O)c(OC)c3-2)CCN1C (configuration not stated),inconclusive: 88%
19,CN(C)c1ccc(/C=C/C=C2/C(=O)NC(=O)N(c3ccccc3)C2=O)cc1,active: 78%
20,CN1CSC(=S)N(C)C1,inconclusive: 93%
21,Cc1cccc(-n2c(O)c(/C=N/Nc3nc4c(c(=O)n(C)c(=O)n4C)n3C)c(=O)[nH]c2=S)c1,inconclusive: 86%
22,N=c1c2c(n(Cc3ccc(Cl)cc3Cl)c3c1CCC3)CCCC2,inconclusive: 100%
23,Cc1cc(/C=C2\C(=O)NC(=O)N(c3cccc(F)c3)C2=O)c(C)n1-c1cc(C(=O)O)cc(C(=O)O)c1,inconclusive: 89%
24,CN(C)C(=O)Oc1ccc(Cl)c2ccccc12,inconclusive: 105%

row,Structure (SMILES),GTP binding activity
1,CCN(CC)C(=O)c1ccc(NC(=O)c2cccc(F)c2)cc1,inconclusive: 100%
2,CN1C2CCC1CC(OC(=O)c1cc(Cl)cc(Cl)c1)C2 (configuration not stated),inactive: 97%
3,CC(=NCc1ccc2c(c1)OCO2)c1c(O)n(C)c(=O)n(C)c1=O,inconclusive: 90%
4,COc1cccc(-n2c(O)c(C=NCCN3CCOCC3)c(=O)[nH]c2=O)c1,inconclusive: 103%
5,CN1C(=O)N(C)C(=O)C2(Cc3c(ccc4ccccc34)N(C)C2)C1=O,inactive: 91%
6,Cc1ccc(C(=O)n2cc(CCN3CCS(=O)(=O)CC3)c3ccccc32)cc1,inconclusive: 94%
7,Cc1cccc(-n2c(O)c(C=Nc3ccc(Br)cn3)c(=O)[nH]c2=O)c1,inactive: 102%
8,Cc1c(C=O)c2ccccc2n1Cc1ccc(F)cc1,inconclusive: 95%
9,COc1ccc(CCNCc2ccccn2)cc1OC,inconclusive: 103%
10,COc1cc(/C=C/C(=O)c2c(O)n(CCc3ccccc3)c(=O)[nH]c2=O)ccc1O,inactive: 95%
11,O=c1cccc2n1CC1CC2CN(S(=O)(=O)c2ccccc2)C1 (configuration not stated),inconclusive: 106%
12,CCCCn1c(O)c(C(CC)=NCCCN(C)C)c(=O)[nH]c1=O,inconclusive: 101%
13,O=c1[nH]c(O)c(N=Nc2cc(C(F)(F)F)ccc2Cl)c(=O)[nH]1,inconclusive: 92%
14,CC(C)c1ccc(N2C(=O)NC(=O)/C(=C\c3cnc(-c4ccccc4)nc3)C2=O)cc1,inconclusive: 88%
15,O=C(CSc1ccccc1)N1CCC2(CC1)OCCO2,inconclusive: 104%
16,CCC1(c2ccccc2)C(=O)N(C)C(=O)N(C)C1=O,inconclusive: 89%
17,CCCCn1c(O)c(C=NCCN2CCCCC2)c(=O)[nH]c1=O,inactive: 104%
18,Nc1ccc(C2(c3ccc(N)cc3)CN3CCC2CC3)cc1,inconclusive: 102%
19,CSc1ncc(Cl)c(C(=O)O)n1 (tested in a mixture with another compound),inactive: 102%
20,O=C1CN=C(c2ccccc2)c2cc(Br)ccc2N1Cc1cc(=O)n2ccccc2n1,inconclusive: 186%
21,CC(C)Sc1nnc([C@@H](N)Cc2c[nH]c3ccccc23)o1,inconclusive: 94%
22,O=C(C1CC(=O)N(C2CCCC2)C1)N1CCC2(CC1)OCCO2 (configuration not stated),inconclusive: 105%
23,CCOc1ccc(N2C(=O)/C(=C\c3cccs3)C(=O)NC2=S)cc1,inconclusive: 91%
